Whole data set: some 33,000 sequences, median “E-score (-0.5 to 0.5)” near -0.017, cut for the highest 2% near 0.3. The list shows a part of the results.
Each sequence was assayed against T1, Sut1 (UniProt P53032) (assay: PBM E-score (8-mer binding enrichment) (E-score (-0.5 to 0.5)); higher = stronger / more preferred TF binding; most listed sequences are background and not binding sites). Details: protein concentration: 200 nM; construct: GST-full length.
T1 sequence: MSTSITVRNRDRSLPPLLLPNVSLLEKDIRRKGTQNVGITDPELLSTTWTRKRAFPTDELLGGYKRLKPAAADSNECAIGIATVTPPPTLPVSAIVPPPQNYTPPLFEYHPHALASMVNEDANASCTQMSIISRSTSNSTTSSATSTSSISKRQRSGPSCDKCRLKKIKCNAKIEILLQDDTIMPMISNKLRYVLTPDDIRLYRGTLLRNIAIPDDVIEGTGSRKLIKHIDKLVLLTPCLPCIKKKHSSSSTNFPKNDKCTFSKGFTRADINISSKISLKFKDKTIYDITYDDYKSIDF
Procedure, shortened: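 E-scores (a modified Wilcoxon-Mann-Whitney statistic) were assigned by the Universal PBM Analysis Suite to every ungapped eight-base word pooled with its reverse complement. The input came from universal all-10-mer Agilent arrays made double-stranded by primer extension and probed with GST-tagged yeast transcription factors at about 100-200 nM. Fluorescent anti-GST detected bound protein, and masliner normalised the scans.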

Row | Sequence | PBM E-score
1 | CTAGTATA | 0.137
2 | AGACTCAT | -0.0488
3 | TAGACATA | 0.125
4 | ACTCAGAG | -0.0771
5 | CGCGCTTC | -0.0484
6 | CGGCTCCC | -0.173
7 | ATTCGGGG | 0.244
8 | ATAAGCTG | -0.14
9 | CACCTGAC | -0.187
10 | CAAGTGGC | -0.0471
11 | TCTCAAAA | 0.078
12 | GCCAAGAA | -0.0155
13 | GGTTAGGA | -0.141
14 | CGGAGCGA | 0.325
15 | AACCATAT | 0.166
16 | ATCGCGCC | -0.101
17 | GGAGTAAA | 0.333
18 | AACAGCTT | -0.107
19 | AAAGATGC | -0.0643
20 | ATACCGAT | 0.116
21 | TAAGAAGA | 0.221
22 | TACCTTGA | 0.0116

Row | Sequence | PBM E-score
23 | AATTATAA | 0.335
24 | CGACTCCC | -0.211
25 | ACCATACT | 0.0355
26 | CCACGCAG | -0.25
27 | GCGAACCA | 0.128
28 | ATGAAAGG | -0.0134
29 | GTATAAAC | 0.227
30 | AAGTGCGC | 0.0556
31 | GAGGCGCA | -0.164
32 | CATAAGAA | 0.23
33 | GGAGCCTA | 0.126
34 | AGTATGGG | -0.226
35 | AAATAGGC | 0.0258
36 | ATGTCAAG | -0.0732
37 | CTAATAGC | -0.00937
38 | CCCAAATA | -0.156
39 | TAAATGGA | 0.156
40 | GAAGACCC | -0.114
41 | ACCGTTGC | -0.107
42 | CGAGCTAC | 0.00894
43 | AGGTTGCG | -0.105
44 | TACGGTCA | -0.0479

Row | Sequence | PBM E-score
45 | ATGCGATC | -0.191
46 | AAACATAC | 0.0421
47 | AGTCCTAC | -0.0179
48 | GATCATAA | 0.0305
49 | GGAGGTCA | -0.217
50 | AGGACCAT | -0.187
51 | CATTAATC | 0.142
52 | TCGCGGCA | -0.0924
53 | CACGACTG | -0.327
54 | CCTACGGC | -0.139
55 | ACCCCTCA | -0.375
56 | GGAAAGTA | 0.0794
57 | CCCGTCAG | -0.315
58 | AACTGTGA | -0.0806
59 | AGATACAT | 0.195
60 | TCACGGGA | -0.0194
61 | TGCGCCCA | -0.209
62 | TGACAAAA | 0.156
63 | ACACGACT | -0.225
64 | ACCTTCGA | -0.0231
65 | GGACAACA | 0.0693
66 | CATCGCAA | -0.181

Row | Sequence | PBM E-score
67 | CAGCTTAA | 0.106
68 | GAACCTGA | -0.11
69 | CTACGCGA | -0.0966
70 | ATAAAACC | 0.171
71 | AACTTCAA | 0.0893
72 | GTGAAATA | -0.0344
73 | ATAAGAGA | 0.161
74 | CATGACAG | -0.0273
75 | ATACATAG | 0.112
76 | AACCAATC | 0.108
77 | TGGACCCA | -0.0341
78 | AAGCGAGC | 0.0223
79 | GGACACCC | -0.221
80 | ACGAAAGT | -0.104
81 | AAATGAGT | 0.247
82 | GCAAGCGC | -0.0385
83 | ACTATTAG | 0.196
84 | CATGTAAA | -0.0258
85 | AAAAGGTA | -0.0438
86 | AATACCAT | 0.135
87 | GGAAGACA | 0.00515
88 | TAGTCATA | 0.0894

Row | Sequence | PBM E-score
89 | ATAAAGAA | 0.19
90 | CACCAAAA | 0.08
91 | AGGAGTGG | -0.124
92 | CACTAGGC | -0.0417
93 | ATCGGTAG | 0.0989
94 | ACCAGGGC | -0.315
95 | TAAGGGCA | -0.0268
96 | CAATCATA | 0.235
97 | TCTGGTCA | -0.0502
98 | ATTCAAGC | 0.0319
99 | ACTACGGA | 0.199
100 | AACACTGC | 0.0144
101 | TACCCGGA | 0.247
102 | CCGAGTCA | 0.117
103 | GATAAAAC | 0.208
104 | AGTCAGCC | -0.241
105 | CCAATGGC | -0.105
106 | CATGAATC | -0.0326
107 | CCAGCATC | -0.116
108 | AATCGTAA | 0.174
109 | GTGCTGTA | -0.0633
110 | CGCTTGTC | 0.0336

— the supplement of paper PMC3334620
